Measured values: PubChem BioAssay AID1379 (National Center for Advancing Translational Sciences (NCATS), 2008)
Screen size: about 200,000 compounds; about 560 (0.28%) were called active. The shares of active, inactive and inconclusive entries below differ from those in the screen. The call rests on the fitted dose curve; in most records, active means well fitted inhibition curve with a large enough effect; inconclusive means small, poorly fitted or top-dose-only effect; inactive means flat fitted curve, though single readings scatter. No potency is given beside an inconclusive call; the fits are too rough.

target: Luciferin 4-monooxygenase (Photuris pensylvanica) (UniProt Q27757); assay: Counterscreen for Luciferase (Kinase-Glo TM) Inhibition; settings: ATP luminescence, 8 min; series mostly up to 38.3 µM; further: nearly all actives have a fitted effect of over 60% in size
In short: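 Light output from Kinase-Glo luciferase with luciferin and 10 uM ATP in 50 mM imidazole pH 7.2, KCl, MgCl2, Tween 20, BSA; compound pin-delivered, 8-min ambient incubation, then luminescence read.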
Potency means the concentration at half of the fitted maximal effect; tags describe the fitted curve by direction and shape.

Structure (SMILES) | Potency
CC(C)=CC(=O)NCCc1ccccc1 | inconclusive [inhibitor, single point]
CC(=O)OC/C=C(C)/C=C/C=C(C)/C=C/C1=C(C)CCCC1(C)C | inactive
COc1cccc(-c2nc3ccc([N+](=O)[O-])cc3o2)c1 | inconclusive [inhibitor, single point]
[O-]/[N+](=C\c1cccc(Br)c1)c1ccccc1 | inconclusive [inhibitor, partial curve]
CCC(C)n1c(SCc2ccc([N+](=O)[O-])cc2)nc2ccsc2c1=O (stereo not given) | inactive
COCCn1c(C)cc(C2=NNC(=NC3CC3)SC2)c1C | active: 7.08 µM
COc1cccc2cc(-c3ccccc3)c(=O)oc12 | inconclusive [inhibitor, partial curve]
COc1cc2nc(N3CCN(C(=O)C4CCCO4)CC3)nc(N)c2cc1OC (stereo not given) | inconclusive [inhibitor, partial curve]
O=C(COc1ccccc1)N1CCN(C(=O)c2ccc([N+](=O)[O-])cc2)CC1 | inconclusive [inhibitor, single point]
Cc1nc(N=Nc2ccc(C(=O)O)cc2)c(COP(=O)(O)O)c(C=O)c1O | inconclusive [inhibitor, partial curve]
O=C(O/N=C1/CCSc2ccccc21)c1ccccc1 | inconclusive [inhibitor, partial curve]
COCCn1c(C)cc(C(=O)CSc2nnc3ccccn23)c1C | inconclusive [inhibitor, single point]
C/C(=N\NC(=O)c1ccccc1NC(=O)c1ccc(Cl)cc1)c1ccncc1 | active: 1.26 µM
COc1ccc(-n2c(C)cc(/C=C3\SC(=S)N(Cc4ccco4)C3=O)c2C)cc1 | inactive
O=C(Nc1ccc2c(c1)OCO2)c1ccc2c(c1)OCO2 | inconclusive [inhibitor, partial curve]
Cn1cccc1C(=O)C(=O)Nc1ccc(Cl)cc1 | inconclusive [inhibitor, single point]
COc1ccccc1N=Cc1c(O)c2ccccc2oc1=O | active: 14.1 µM
COc1cccc(/C=N/Nc2ccc(S(=O)(=O)O)cc2)c1O | inconclusive [inhibitor, partial curve]
O=C1c2ccccc2C(O)(O)[C@@]1(O)[C@]1(O)C(=O)c2ccccc2C1(O)O | inconclusive [inhibitor, single point]
N/C(=N\OC(=O)c1cccc(F)c1)c1ccccc1 | active: 11.2 µM
